Among all 260,000 compounds or so, about 960 (0.37%) were called active. The shares of active, inactive and inconclusive entries below differ from those in the screen.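 How the source made its calls: active means mean E-selectin-positive cell signal at least 10% of the positive control, reached in at least 60% of replicates, without over 20% cell loss; inconclusive means no rule given, readout overlaps actives, possibly toxicity-flagged; inactive means the rest, including those meeting only one limit.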
What follows are compounds tested against E-selectin (Homo sapiens) (UniProt P16581) (assay: inducers of endothelial E-selectin expression – imaging, HUVEC, immunofluorescence imaging, single point, primary screen (AID 686992;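 further: signal is the percent of cells scored E-selectin positive by PE staining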)). Conditions: at 7.58 µM, active compounds read high, normalized: neutral wells 0, TNF-alpha wells 100.
UniProt P16581, sequence (P16581 whole entry, looked up): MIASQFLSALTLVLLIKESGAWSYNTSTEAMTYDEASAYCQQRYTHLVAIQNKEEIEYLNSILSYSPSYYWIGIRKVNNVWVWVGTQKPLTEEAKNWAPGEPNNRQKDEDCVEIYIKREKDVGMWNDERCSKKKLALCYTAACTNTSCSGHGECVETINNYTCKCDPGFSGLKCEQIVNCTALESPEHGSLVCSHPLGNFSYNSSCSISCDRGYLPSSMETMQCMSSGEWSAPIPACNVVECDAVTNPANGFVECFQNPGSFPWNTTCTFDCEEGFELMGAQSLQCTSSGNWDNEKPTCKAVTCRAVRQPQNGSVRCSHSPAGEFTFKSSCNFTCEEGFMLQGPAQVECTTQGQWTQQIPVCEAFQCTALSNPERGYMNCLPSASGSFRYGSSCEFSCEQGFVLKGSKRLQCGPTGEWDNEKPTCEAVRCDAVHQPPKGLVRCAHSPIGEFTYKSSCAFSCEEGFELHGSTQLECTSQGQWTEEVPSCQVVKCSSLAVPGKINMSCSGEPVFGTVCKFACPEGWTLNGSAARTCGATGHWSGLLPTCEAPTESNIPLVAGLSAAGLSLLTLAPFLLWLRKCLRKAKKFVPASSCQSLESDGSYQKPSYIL
In short: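 material = human umbilical vein endothelial cells (HUVEC), E-selectin induction | quantity = 3,000 cells/well | medium = EGM-2 growth medium on 0.1% gelatin-coated wells | technique = immunofluorescence imaging | read-out basis = % PE-positive cells | control set = TNF-alpha positive control, DMSO neutral control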

Row | Structure (SMILES) | activation
1 | C[C@@H]1CN([C@H](C)CO)C(=O)c2cc(C3=CCCC3)cnc2O[C@@H]1CN(C)Cc1ccccc1F | inactive: -0.504%
2 | O=C1Nc2ccccc2Oc2cc([N+](=O)[O-])cc(Oc3ccccc3)c21 | inconclusive: 87.4%
3 | O=[N+]([O-])c1ccc(CSc2ncnc3c2ncn3[C@@H]2O[C@H](CO)[C@@H](O)[C@H]2O)cc1 | inconclusive: 73%
4 | Cc1noc(C)c1NC(=O)Nc1ccc2c(c1)C(=O)N([C@H](C)CO)C[C@H](C)[C@@H](CN(C)Cc1ccncc1)O2 | inconclusive: 52.8%
5 | C[C@@H]1CN([C@H](C)CO)C(=O)c2cc(NS(=O)(=O)c3ccc(Cl)cc3)ccc2O[C@H]1CN(C)S(=O)(=O)c1cn(C)cn1 | inconclusive: 56%
6 | COc1cccc(-c2sc3ccccc3c2-c2ccc(OCCN3CCCC3)cc2)c1 | inactive: 0.32%
7 | CCc1cccc(NC(=O)CCc2nc3sc4c(c3c(=O)[nH]2)CCCC4)c1 | active: 84.2%
8 | CCC(C)(C)C1CCC2(CC1)NC(=O)N(CC(=O)N1CCN(C(=O)c3ccco3)CC1)C2=O (configuration not stated) | inconclusive: 89.9%
9 | Cc1c(O)c(=O)n(-c2ccccc2)n1C | inconclusive: 27.6%
10 | COCCCNc1c2c3c(cccc3[nH]c1=O)C(=O)c1ccccc1-2 | inconclusive: 34.4%
11 | COc1ccc(CCNC(=O)CC(Cc2ccccc2)C(=O)O)cc1OC (configuration not stated) | inconclusive: 37.9%
12 | COc1ccc(C2OC(=O)CC2C(=O)NCc2ccc(C)cc2)cc1OC (configuration not stated) | inconclusive: 51.5%
13 | C[C@H](CO)N1C[C@H](C)[C@H](CN(C)S(=O)(=O)c2ccc(Cl)cc2)Oc2ccc(NC(=O)Nc3cccc4ccccc34)cc2C1=O | inconclusive: 29.2%
14 | CC(C)C(=O)NC(NC(=O)C(C)C)c1ccc([N+](=O)[O-])cc1 | inconclusive: 58.5%
15 | CCCn1c(=O)c2[nH]c(C3CCCC3)nc2n(CCC)c1=O | inconclusive: 55.5%
16 | C[C@H]1CN([C@@H](C)CO)C(=O)c2cc(N(C)C)ccc2O[C@H]1CN(C)C(=O)Nc1ccc2c(c1)OCO2 | inconclusive: 215%
17 | COc1ccc(S(=O)(=O)Nc2cc(Cl)ccc2-n2cncn2)cc1 | inconclusive: 33.7%
18 | CCC(C)Sc1cc(-c2nc3cc(C)ccn3c2NC2CCCCC2)ccc1OC (configuration not stated) | inconclusive: 29%
19 | COc1ccc([C@H]2CC(=O)C[C@@H](CCn3nnc4ccccc43)O2)cc1 | inconclusive: 102%
20 | C[C@H]1CN([C@@H](C)CO)C(=O)c2cccc(NC(=O)Nc3ccccc3)c2O[C@H]1CN(C)S(C)(=O)=O | inconclusive: 34.6%
21 | CC(NC(=O)CSc1nc(C2CC2)n(-c2ccccc2)n1)c1ccco1 (configuration not stated) | inconclusive: 30.7%
22 | CCCC#Cc1ccc2c(c1)O[C@@H](CN(C)S(=O)(=O)c1cccc(F)c1)[C@@H](C)CN([C@@H](C)CO)S2(=O)=O | inactive: -0.213%
23 | COc1ccc(CN(C)C[C@@H]2Oc3ccc(NC(=O)Nc4ccc(F)cc4)cc3CC(=O)N([C@H](C)CO)C[C@@H]2C)cc1 | active: 75.7%
24 | O=C(COC(=O)c1cncc(Br)c1)Nc1ccc(F)c(F)c1F | inconclusive: 55.7%

Row | Structure (SMILES) | activation
25 | COC(=O)C1=C(C)N(Cc2cccc(C(F)(F)F)c2)C(=NCc2ccc3c(c2)OCO3)NC1c1ccccc1C(F)(F)F (configuration not stated) | inconclusive: 41.8%
26 | Cc1noc(C)c1S(=O)(=O)Nc1ccc2c(c1)C(=O)N([C@H](C)CO)C[C@@H](C)[C@H](CN(C)Cc1ccc(C(F)(F)F)cc1)O2 | inactive: 0.398%
27 | CN(C)c1ccc(CN2CCC(C(=O)NC(c3ccc(F)cc3)c3ccc4ccccc4n3)CC2)cc1 (configuration not stated) | inactive: -0.144%
28 | FCc1nc2nc(Cl)c(Cl)nc2[nH]1 | inconclusive: 43.2%
29 | C/C(=N\Nc1nc(C)cc(-c2ccccc2)n1)c1cccc(N)c1 | inconclusive: 34.8%
30 | O=C(NCCCN1CCCC1)Nc1ccccc1[N+](=O)[O-] | inconclusive: 31.1%
31 | C[C@@H]1CN([C@H](C)CO)S(=O)(=O)c2ccc(-c3ccc(F)cc3)cc2O[C@@H]1CN(C)CC1CC1 | active: 91.8%
32 | C[C@@H]1CN([C@@H](C)CO)C(=O)c2cc(NC(=O)Cc3ccccc3)ccc2O[C@@H]1CN(C)C(=O)Nc1cccc2ccccc12 | inconclusive: 118%
33 | Cc1cc(C)nc(N/N=C2/CCCC/C2=C\c2ccccc2)n1 | inconclusive: 26.6%
34 | CCOCCCNC(=O)CN1CCN(S(=O)(=O)c2ccc3c(c2)CCC3)CC1 | inconclusive: 36.5%
35 | Cc1n[nH]c2ccccc2c1=O | inactive: -0.164%
36 | C[C@@H]1CN([C@H](C)CO)C(=O)c2cccc(NC(=O)C3CC3)c2O[C@@H]1CN(C)C | inconclusive: 34%
37 | CNC[C@H]1Oc2ccc(NS(=O)(=O)c3ccc(C)cc3)cc2CC(=O)N([C@@H](C)CO)C[C@H]1C | inconclusive: 43.2%
38 | CCOCCCNC(=O)Cn1cnc2c(cnn2-c2ccc(F)cc2)c1=O | inconclusive: 44.2%
39 | CC(C)CCN1CCN(Cc2ccc(C(F)(F)F)cc2)CC1CCO (configuration not stated) | inconclusive: 27.5%
40 | CCc1ccc(C(=O)Nc2cccnc2Oc2ccc(Cl)cc2)cc1 | inconclusive: 56.2%
41 | Cn1c(SCC(=O)N2c3ccccc3Sc3ccccc32)nc2ccccc21 | inactive: -3.02%
42 | CN1C(=O)c2cc(NC(=O)C3CCCC3)ccc2OC[C@@H]2O[C@@H](CC(=O)Nc3ccccc3)CC[C@@H]21 | inconclusive: 59%
43 | O=S(=O)(NC1CCCCC1N1CCC(O)CC1)c1ccc(Cl)cc1 (configuration not stated) | inconclusive: 27.2%
44 | C[C@H](CO)N1C[C@H](C)[C@@H](CN(C)S(=O)(=O)c2ccccc2)Oc2c(NC(=O)Nc3ccccc3)cccc2C1=O | inconclusive: 31.3%
45 | CCC(=O)N1[C@@H]2CN(S(=O)(=O)c3ccccc3F)c3ccccc3[C@@H]2[C@@H]1CO | inactive: 0.29%
46 | CC(=O)Nc1ccc(-c2ccnc3c2CC(C(=O)NCc2ccc(N4CCN(C)CC4)cc2)O3)cc1 (configuration not stated) | inactive: 0.646%
47 | Cc1noc(C)c1S(=O)(=O)N(C)C[C@H]1Oc2c(NC(=O)NC(C)C)cccc2C(=O)N([C@H](C)CO)C[C@@H]1C | inconclusive: 49.8%

— PubChem BioAssay AID686992 (Broad Institute, 2013)
